# Assay results as given in the supplement of paper PMC11417369.
# The other results are listed elsewhere or left out.
# Tested on: PfHDP1 homeodomain (GST-tagged)
# Assay: gcPBM binding intensity (ln(normalized median fluorescence intensity)); higher = stronger DNA binding
# Method in brief: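 Alexa488 anti-GST antibody, scanned at 488 nm, detected GST-tagged P. falciparum DNA-binding domains that had been expressed in E. coli and incubated for 1 h on an Agilent 4 × 180k array. The array carried primer-extended double-stranded 36-bp intergenic genomic probes and negative controls. Binding intensity is the highest Masliner-normalised natural-log median intensity across replicate spots of either orientation of each probe.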
row,Sequence,gcPBM binding intensity (ln)
1,AATAGATATATAAATACACACAAACATACCTATATA [CACACA_site7823],6.88
2,TCACACCTTTTTGGTTGTACTTAAATTTCTTTTTTT [XGTACX_site6438],5.88
3,ATATATATATATGCATGTACATATATTTGTTATATC [XGTACX_site3197],9.16
4,TTCCCTTATTTTGTATGTACACAATTTATCATGTTG [XGTACX_site2896],7
5,AAAAAAAAAAAAATGGTGCAACTTTGTTAAAGGAAA [GTGCAC_site9950],9.48
6,ATTTAAAAGTTGGTAGTGCATTAAAAATAACAAAAA [GTGCAC_site9835],9.69
7,AATTTCTTCCATTGTAGTACTCAATTTTTTTTTGTT [XGTACX_site5847],7.33
8,CACATATACAAAAAGAAATGTTTAGTTGAAAATTAA [CACACA_negctrl_site1407],5.98
9,GTGTAATATTATATATATATATATAATATATATACA [CACACA_negctrl_site263],6.51
10,GACAGATTATAGCATAGTACTCATACATACATACAT [XGTACX_site1252],7.37
11,TACATACATACATACACACACACATCTATATTTATA [CACACA_site6171],7.5
12,TTTCAAAAATTATTTTGTACATATAATTAATATACG [XGTACX_site512],6.34
13,TTTTATTATTTGTCTTGTACTCATTGTAAGAGTATG [XGTACX_site1538],6.55
14,ATTAAATACATTAACACACACACAAATAAATACATA [CACACA_site5583],7
15,TGATAATAAGCATACACACACACACCCAAAAAAAAA [CACACA_site721],6.84
16,TATTACATTATTCAAAAAAATTTATATGGTTATAGG [CACACA_negctrl_site1657],6.3
17,ATATATATATATATATATATATATATGATTATTACT [GTGCAC_negctrl_site109],9.43
18,AAATAAAAAAAAAAAAAAAATAACTTAAATGGGATA [TGCATGCA_negctrl_site595],6.06
19,AACTAAATGTTATTCGCACACGGAATTTATTTAATG [CACACA_site3664],6.7
20,TTTTTTTTTTCTTTTTTTCTCATGAAATTCTAAATG [CACACA_negctrl_site918],6.04
21,TAAACTATATTTACATGTACATATAATATTAAATAA [XGTACX_site3528],6.35
22,CCTATAAAACCATATACACACATATAAATAAAAAAA [CACACA_site7809],6.58

row,Sequence,gcPBM binding intensity (ln)
1,AATTATACTCACGTTACACACACACTATAAATATAT [CACACA_site7863],7.63
2,AAAAATTTGGCATACACACACACACGCACACGCACA [CACACA_site6422],7.37
3,ATTAATATGAATAAAACACACATATATAACTTGTAA [CACACA_site6989],6.44
4,AAAAAAAAATTAGGGGTGCCATTTGCTGCTGTGCTT [GTGCAC_site9913],6
5,TTTTGTATTTCTCACACACACATAAGTAAACAATAA [CACACA_site5105],6.78
6,TATATATGGGTACTAATTCCTTTAATTTCTTTAATT [CACACA_negctrl_site949],6.07
7,TAGTAAAAGATATACACACACCAAAAAATATAATTA [CACACA_site7142],7
8,AATTATATTCAAAATGGTACACACAATATTTAATTG [XGTACX_site5521],6.39
9,TAAACAGACATATAAACACACATATAAACAGACATA [CACACA_site7214],6.85
10,GTGTGGTGCTCGAGGAGTACAAACAATATGTAATTT [XGTACX_site4160],6.97
11,TTTATTTTATAATTCACACATATATACCTATTTTAT [CACACA_site5709],6.47
12,TTTTCTTCCTATTATTGTACATATAGTATTCTTTCA [XGTACX_site4428],7.39
13,AATATAAGTAATTATACACACTTAATATTTATATAC [CACACA_site7334],6.34
14,TAATAATAAACAACCACACACAAAAAAACAAAAAAA [CACACA_site3269],6.74
15,ATTTAATTATGTAAGTGTACTTTGGAATATAATATT [XGTACX_site3186],6.34
16,GTAGCACATATATATTGTACATAATATATACATTAT [XGTACX_site6354],6.76
17,TTGGGTCAAACATAAACACACACAAAAAGAAAAAAT [CACACA_site8328],6.85
18,TATTATATTAATGATGGTACAGTGTATATATATAAT [XGTACX_site1286],6.99
19,TCATAGTATGGACACACACACACACCCATATATATA [CACACA_site5033],6.94
20,TTTCCATATTTTTAAAGTACATATTTCCGTTTCCAC [XGTACX_site7832],6.26
21,ACATATAATATAAAGTGTACAAGAAAATAAAAATAA [XGTACX_site1273],6.85
22,GGGATATTTTAAAGGGTGCATATTATTAAAATAATG,8.15

row,Sequence,gcPBM binding intensity (ln)
1,TTATTTGATTACTTGCGTACTTATTTCATATTTTTT [XGTACX_site6648],6.72
2,ATGAGAAAACATAAAAGTACAAAAAGAAAAAAAAAA [XGTACX_site6020],6.24
3,AATTATTTCTTTTACACATGCAATATTTAATTAAAA [TGCATGCA_site598],7.06
4,TTTAAATGCTTTTTGTGGTGACTTATCCTTTCATAA [XGTACX_negctrl_site109],6.61
5,AATTTAAGCAGAACATATATATATATATATATAAAG [CACACA_negctrl_site769],7.12
6,TATATGCTATAATATACACACATACCTATATTTATA [CACACA_site6383],7.13
7,ACATATTAAAATATATGTACATAAAATATGAAAAAA [XGTACX_site5869],6.79
8,ATATTTATTCCTTTTGGTACACAAAAAAAAAAAAAA [XGTACX_site8126],6.64
9,TTAAAATTCAAAAAAAAAAATCAGAATATCAGAAAA [CACACA_negctrl_site1361],5.92
10,TATATAACATAATATACACACATTATATGCGTAATT [CACACA_site6098],6.51
11,ATTAAAGAAATATATACACACATTATGGGGGAATAA [CACACA_site178],7.28
12,GATATATAAATAAATACACACATAAAATAGAAATAT [CACACA_site6881],6.81
13,GTTAGGATAGATTAGACATGCACATAAATGCACTTC [TGCATGCA_site561],10.6
14,TTTTTATAGAATTTAACACACATTTCATATAAAAAA [CACACA_site7453],6.25
15,CATAATACAAATGTGATACCTGAAAATGACTTATTA [CACACA_negctrl_site994],6.09
16,TTCTTTTTTGTAATAACACACACACTAACAGAAAAA [CACACA_site8646],7.01
17,GAATTAATTTTAAAACGTACATGGGTGTATTTACAC [XGTACX_site5939],6.88
18,TGCTACATAATATGTACACACATATACATATTTATA [CACACA_site6545],6.55
19,TATCACATTTATGAGAGTACATAATTAATTCATGAT [XGTACX_site7850],6.1
20,GTATGATTAAATAAAGGTACACTTATATTTATTTAT [XGTACX_site6966],6.21
21,ATTGATACATCCAATACACACTACAGATAATGATGT [CACACA_site5098],6.58
22,GTAATAAATTAAATATGTACATATTAAAATTAAGGA [XGTACX_site2290],6.52

row,Sequence,gcPBM binding intensity (ln)
1,TTGGAATAATATAAATAAATAAATATATATATATAT [CACACA_negctrl_site900],8.97
2,ATACAACAGATATATACACACATATAACAATAATAA [CACACA_site7560],6.76
3,TTTCTTTTTGTTCGTGTACACACATGAAATTTATAA [CACACA_site8466],7.35
4,AAAAAAAAAAAATGTGCACACGCGTACACCCAAAAA [CACACA_site8614],8.02
5,CAATTTTTATGTGTGTGTACTCATTTGTTTTATAAA [XGTACX_site406],6.82
6,TTTTATTTTATATAACAACAAAATGGAAATATATAT [GTGCAC_negctrl_site71],6.56
7,ATATTATGAAGGGATATTTTCAAAAATATTAGGAGA [CACACA_negctrl_site942],6.73
8,TAAATGAAAATAAATTAACACACAATTTTAATATTG [CACACA_site8360],5.92
9,GTCAATATTTAGATATGTACTAAGGAGTGCTATATA [XGTACX_site222],6.39
10,AATTATACATATATTTAACACACATTTTATAAAGTG [CACACA_site8362],6.45
11,ATATATATATATAATTGTACATGTGTGTATAATTTG [XGTACX_site2417],8.92
12,ATTTATTTATATACAAGTACATAAAAAATTAACTTA [XGTACX_site6170],5.89
13,TATTTGATAAAAAAAAGTACTAGAATTTCGCTTTTG [XGTACX_site7754],6.08
14,TAAAAATTAAAATGTTGTACAATGATAAAATATTAT [XGTACX_site7874],6.74
15,TAAATTGAAATATATTGTACATTATCAACTAAGGGA [XGTACX_site1635],6.31
16,CTCAACATATACGTAACACACATATAAATATAAATA [CACACA_site7749],6.63
17,AAATTATAAAATAACTGTACCAATCCTTTTTTTTTA [XGTACX_site2229],5.84
18,TTATTCTACATATATGCATGTGTATGATCTGTTTAT [TGCATGCA_site782],6.6
19,CATATATACCTATATACACACATATAGATTTATATA [CACACA_site6451],6.63
20,TGATATTATCTCTTCACACACTCACATACAGACAAA [CACACA_site1246],6.78
21,AAAATAAAAAAAATGTAAAAGGTTAAAGTGAAATAT [CACACA_negctrl_site350],6.75
22,ATATAAATGATATGTACACACATTTATATATATAAA [CACACA_site3475],6.57
